From patent US20030050248A1 (priority 2000, published 2003) come the findings set out here.

The structures appear in SMILES notation. Converted amounts (≈) assume the structure as drawn. Peptide text beside a SMILES is read from it. * marks the point of attachment. Fmoc = O=C(OCC1c2ccccc2-c2ccccc21)*; X1 = O=C(Sc1ccccc1)*

In one test the test system is Staphylococcus.
Test: not given
The following applies: overnight incubation, non-turbid well.
Turning to `O=C(Nc1ccccc1C(=O)O)OCC1c2ccccc2-c2ccccc21` [Reference #4, Fmoc-2-aminobenzoic acid], the “MIC (minimal inhibitory concentration) +/− sem” value stood at 7.2 ± 1.6 µg/mL (≈ 20 µM).

In the case of `O=C(O)[C@H]1c2ccccc2CCN1C(=O)OCC1c2ccccc2-c2ccccc21` [Reference #16], the “MIC (minimal inhibitory concentration) +/− sem” value turned out to be 25 µg/mL (≈ 62.6 µM). As for `CC(C)(C)OC(=O)n1cc(C[C@H](NC(=O)OCC2c3ccccc3-c3ccccc32)C(=O)O)c2ccccc21` [Reference #35, Fmoc-L-Trp(Boc)-OH], the “MIC (minimal inhibitory concentration) +/− sem” value was found to be 12.5 ± 0 µg/mL (≈ 23.7 µM). For the compound `N[C@@H](Cc1c[nH]c2ccccc12)C(=O)O` [Reference #46, H-L-Trp-OH], the “MIC (minimal inhibitory concentration) +/− sem” value turned out to be 50 µg/mL (≈ 245 µM). `O=C(NCCCC[C@H](NC(=O)OCC1c2ccccc2-c2ccccc21)C(=O)O)OCc1ccccc1` [Reference #69, Fmoc-L-Lys(Z)-OH]: the “MIC (minimal inhibitory concentration) +/− sem” value was 50 µg/mL (≈ 99.5 µM).

`O=C(NC1(C(=O)O)CCCCC1)OCC1c2ccccc2-c2ccccc21` [Reference #86, Fmoc-1-amino-1-cyclohexane carboxylic acid]: the “MIC (minimal inhibitory concentration) +/− sem” value turned out to be 50 ± 0 µg/mL (≈ 137 µM). On to `O=C(O)[C@@H]1CC[C@H](c2ccccc2)N1C(=O)OCC1c2ccccc2-c2ccccc21` [Reference #113, (2S,5R)-Fmoc-5-phenyl-pyrrolidine-2-carboxylic acid], for which the “MIC (minimal inhibitory concentration) +/− sem” value is 25 µg/mL (≈ 60.5 µM). With `O=C(N[C@@H](C/C=C/c1ccccc1)C(=O)O)OCC1c2ccccc2-c2ccccc21` [Reference #124, Fmoc-L-styrylalanine], the “MIC (minimal inhibitory concentration) +/− sem” value was 25 µg/mL (≈ 60.5 µM). Still for that read-out and setting: then `C[C@@H](O)[C@H](NC(=O)[C@H](Cc1cn(C(=O)Sc2ccccc2)c2ccccc12)NC(=O)[C@@H]1CCCN1C(=O)[C@H](CO)NC(=O)[C@H](Cc1ccc(O)cc1)NC(=O)OCC1c2ccccc2-c2ccccc21)C(=O)N[C@@H](CC(N)=O)C(=O)N[C@@H](Cc1ccccc1)C(=O)O` [VIF-1, (Fmoc-Tyr)-Ser-Pro-Trp(phenylthiocarbamate)-Thr-Asn-Phe] (Fmoc-YSPW(X1)TNF-OH; C-terminus assumed), with 25 µg/mL (≈ 19.6 µM).

Another test has as its system Staphylococcus. Kind of test: microbe, parasite or virus in culture. The following applies: read-out: MIC (minimal inhibitory concentration) +/− sem.
As for `NC(=O)NCCC[C@H](NC(=O)OCC1c2ccccc2-c2ccccc21)C(=O)O` [Reference #105, Fmoc-L-citrulline], the MIC was determined as 50 µg/mL (≈ 126 µM).
